Out of some 150,000 compounds screened, about 540 (0.36%) showed an effect of 50% or more. This is one part of the list.
What follows are compounds tested on Plasmodium falciparum (assay: Primary screen in NF54 nanoGlo assay, in single point, at 2uM, 72h; a lower Z score goes with more inhibition). Settings: timepoint 72 hour.
Assay type: functional, Erythrocyte

SMILES	% Inhibition [%]	Z score
Cc1nn(C(=O)c2cc(-c3ccccc3)nc3ccccc23)c2c1[C@H]1[C@@H](C2)C1(C)C	-9	1.1
CN(C)S(=O)(=O)N[C@H]1CCN(c2nnc(-c3ccccc3)s2)C[C@@H]1O	-8	1.02
Cc1ccc(OCC(=O)N(C)C2CCN(c3ccccn3)CC2)cc1	-4	0.67
COC(=O)[C@@H]1CC[C@@H](c2ccccc2)N1	-12	2.23
Cn1c(=O)c2cn(S(=O)(=O)c3ccccc3F)nc2n(C)c1=O	-6	0.69
Nc1nc2nc(-c3ccc(F)cc3)c(CCN3CCOCC3)cn2n1	-9	1.36
CC(C)c1noc(-c2cn([C@H]3CCCN(C(=O)c4ccsc4)C3)nn2)n1	-4	0.51
O=C(O)[C@H]1CCN(C(=O)c2ccc(-c3ccccc3F)o2)C1	-6	0.71
CC(=O)N1CCCN(c2nnnn2C2CCCC2)CC1	-6	0.84
CN(CCO)C1CCN(C(=O)c2cscc2-c2ccccc2)CC1	3	-0.36
CON(Cc1cnc(C)c2c1COC(C)(C)O2)CC1CCOCC1	-1	0.11
C[C@@H]1CN(C[C@@H]2CN(C(=O)Cc3ccc(CO)cc3)C[C@@H]2CO)C[C@H](C)O1	10	-1.36
O=C(CN1CCO[C@H](C(F)(F)F)C1)NCc1ccccn1	1	-0.11
Cc1cc(N2CCn3c(nc4ccccc43)C2)ccc1NC(=O)C1CCCCC1	35	-1.84
O=C1CN(CCC2=CCCCC2)[C@H]2CS(=O)(=O)C[C@H]2N1c1ccc(Cl)cc1	-3	0.33
O=C(CN1CCCCCC1)Nc1nncs1	-2	0.24
O=C(Nc1ccccc1C(=O)n1cnc2ccccc21)c1ncn[nH]1	3	-0.44
Cc1cccn2c(NC(=O)c3cc(N4CCOCC4)ncn3)c(-c3ccc(F)cc3)nc12	4	-0.52
O[C@H]1Cc2ccccc2C12CCN(Cc1cc(F)cc(F)c1)CC2	-6	1.14
CN(C(=O)Cc1nnc2cc(-c3nc(C4CC4)no3)ccn12)C1CCCCC1	-8	1.18
Cn1nccc1[C@@H](O)CNC(=O)C1(c2cccnc2)CC2(CCC2)C1	-8	1.59

SMILES	% Inhibition [%]	Z score
O=S(=O)(CCN(C1CCCCC1)S(=O)(=O)c1ccc(Br)cc1)N1CCNCC1	-4	0.62
CN1CCN(C(=O)c2cc(-c3ccccc3)on2)[C@H]2CS(=O)(=O)C[C@H]21	-9	1.28
Oc1ccccc1N1CCN([C@H]2CCCc3ccccc32)CC1	-6	0.61
COc1ccccc1-n1c(=O)n(CC(=O)Nc2ccccc2C(F)(F)F)c(=O)c2c(C)cc(C)nc21	1	-0.17
CCN(CC)c1nc2ncn(CC(=O)NCc3ccc4c(c3)OCO4)c(=O)c2s1	-2	0.24
CC(C)(C)c1nnc(CN2CCC[C@H]2c2cccs2)o1	-10	0.86
Cc1ccc(OCc2c(C(=O)N(C)Cc3ccccc3)c(=O)cc(C)n2CCN2CCOCC2)cc1	-3	0.45
O=C1CN(c2ccnc(C(=O)N3CCOCC(F)(F)C3)c2)CCN1	0	0.03
CC(C)n1cc(C(=O)N2CC[C@@]3(CCCN(CCC4CCCCC4)C3)C2)cn1	-5	0.75
COCCCN(Cc1c(-c2ccccc2)noc1N1CCCC[C@@H]1C)C(=O)Cc1ccccc1	-10	0.89
Cc1ccc(C(=O)N2CCN(c3oc(C4CC4)nc3C#N)CC2)c(C)n1	5	-0.99
COC(=O)c1ccc(NC(=O)C2CN(C(C)=O)C2)cc1	-1	0.12
COc1ccc(N(CC(=O)NCC(=O)Nc2cc(C)ccc2OC)C(C)C)cc1F	-5	0.78
O=C1CC[C@H](CN2CC3CC2(C(F)(F)F)C3)CCN1	-2	0.2
CN1CCCN(C[C@H](O)COCc2ccc3c(c2)OCO3)c2cc(F)ccc21	-4	0.5
O=C1NC2(CCCC2)C(=O)N1CCc1nc(C2(c3ccccc3)CCC2)no1	-16	1.61
O=C(c1c(C(F)(F)F)ccc(Cl)c1F)N1CCN(c2nccc(-c3ccco3)n2)CC1	-11	1.43
CC(C)(C)OC(=O)Cc1ccccc1N	1	-0.15
O=C(Nc1ccncc1F)NC1CCC2CCCC2C1 (configuration not stated)	-2	0.42
CCOc1ccnc(N2CCC3(CC2)CC(=O)NC(=O)C3)n1	-7	0.86
